Source: the supplement of paper PMC8728848
The other results are listed elsewhere or left out.

Tests used:
Assay in all cases: glycan array binding signal (z-score within array); higher = stronger binding
Details in all cases: glycan notation: IUPAC condensed, linker removed
Fuc(a1-2)Gal = target: Fuc(a1-2)Gal
Method in brief: (§1)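 The Consortium for Functional Glycomics database supplied 3228 glycan arrays, of which those lacking an available protein sequence were dropped. The binding signal, a within-array Z-score, was averaged across arrays of the same protein sequence and across linkers. Negative scores can be read as non-binding.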

Fuc(a1-2)Gal(b1-3)GalNAc = target: Fuc(a1-2)Gal(b1-3)GalNAc
Method in brief: as §1

[1] = target: Fuc(a1-2)Gal(b1-3)GalNAc(a1-3)[Fuc(a1-2)]Gal(b1-4)Glc
Method in brief: as §1

[2] = target: Fuc(a1-2)Gal(b1-3)GalNAc(a1-3)[Fuc(a1-2)]Gal(b1-4)GlcNAc
Method in brief: as §1

[3] = target: Fuc(a1-2)Gal(b1-3)GalNAc(b1-3)Gal
Method in brief: as §1

[4] = target: Fuc(a1-2)Gal(b1-3)GalNAc(b1-3)Gal(a1-4)Gal(b1-4)Glc
Method in brief: as §1

[5] = target: Fuc(a1-2)Gal(b1-3)GalNAc(b1-4)[Neu5Ac(a2-3)]Gal(b1-4)Glc
Method in brief: as §1

Fuc(a1-2)Gal(b1-3)GlcNAc = target: Fuc(a1-2)Gal(b1-3)GlcNAc
Method in brief: as §1

[6] = target: Fuc(a1-2)Gal(b1-3)GlcNAc(b1-2)Man(a1-3)[Fuc(a1-2)Gal(b1-3)GlcNAc(b1-2)Man(a1-6)]Man(b1-4)GlcNAc(b1-4)GlcNAc
Method in brief: as §1

[7] = target: Fuc(a1-2)Gal(b1-3)GlcNAc(b1-2)Man(a1-3)[Fuc(a1-2)Gal(b1-3)GlcNAc(b1-2)Man(a1-6)]Man(b1-4)GlcNAc(b1-4)[Fuc(a1-6)]GlcNAc
Method in brief: as §1

[8] = target: Fuc(a1-2)Gal(b1-3)GlcNAc(b1-3)Gal(b1-4)Glc
Method in brief: as §1

[9] = target: Fuc(a1-2)Gal(b1-3)GlcNAc(b1-3)GalNAc
Method in brief: as §1

[10] = target: Fuc(a1-2)Gal(b1-3)GlcNAc(b1-3)[Fuc(a1-2)Gal(b1-3)GlcNAc(b1-6)]GalNAc
Method in brief: as §1

[11] = target: Fuc(a1-2)Gal(b1-3)GlcNAc(b1-3)[Gal(b1-4)GlcNAc(b1-6)]Gal(b1-4)Glc
Method in brief: as §1

[12] = target: Fuc(a1-2)Gal(b1-3)GlcNAc(b1-3)[Neu5Ac(a2-6)Gal(b1-4)GlcNAc(b1-6)]Gal(b1-4)Glc
Method in brief: as §1

[13] = target: Fuc(a1-2)Gal(b1-3)GlcNAc6S
Method in brief: as §1

[14] = target: Fuc(a1-2)Gal(b1-3)[Fuc(a1-4)]GlcNAc
Method in brief: as §1

[15] = target: Fuc(a1-2)Gal(b1-3)[Fuc(a1-4)]GlcNAc(b1-2)Man(a1-3)[Fuc(a1-2)Gal(b1-3)[Fuc(a1-4)]GlcNAc(b1-2)Man(a1-3)]Man(b1-4)GlcNAc(b1-4)GlcNAc
Method in brief: as §1

[16] = target: Fuc(a1-2)Gal(b1-3)[Fuc(a1-4)]GlcNAc(b1-2)Man(a1-3)[Fuc(a1-2)Gal(b1-3)[Fuc(a1-4)]GlcNAc(b1-2)Man(a1-6)]Man(b1-4)GlcNAc(b1-4)[Fuc(a1-6)]GlcNAc(b1-4)[Fuc(a1-6)]GlcNAc
Method in brief: as §1

[17] = target: Fuc(a1-2)Gal(b1-3)[Fuc(a1-4)]GlcNAc(b1-3)[Fuc(a1-3)[Gal(b1-4)]GlcNAc(b1-6)]Gal(b1-4)Glc
Method in brief: as §1

[18] = target: Fuc(a1-2)Gal(b1-3)[Fuc(a1-4)]GlcNAc(b1-3)[Gal(b1-4)GlcNAc(b1-6)]Gal(b1-4)Glc
Method in brief: as §1

Fuc(a1-2)Gal(b1-4)Glc = target: Fuc(a1-2)Gal(b1-4)Glc
Method in brief: as §1

Fuc(a1-2)Gal(b1-4)Glc6S = target: Fuc(a1-2)Gal(b1-4)Glc6S
Method in brief: as §1

Fuc(a1-2)Gal(b1-4)GlcNAc = target: Fuc(a1-2)Gal(b1-4)GlcNAc
Method in brief: as §1

[19] = target: Fuc(a1-2)Gal(b1-4)GlcNAc(b1-2)Man
Method in brief: as §1

[20] = target: Fuc(a1-2)Gal(b1-4)GlcNAc(b1-2)Man(a1-3)[Fuc(a1-2)Gal(b1-4)GlcNAc(b1-2)Man(a1-6)]Man(b1-4)GlcNAc(b1-4)GlcNAc
Method in brief: as §1

[21] = target: Fuc(a1-2)Gal(b1-4)GlcNAc(b1-2)Man(a1-3)[Fuc(a1-2)Gal(b1-4)GlcNAc(b1-2)Man(a1-6)]Man(b1-4)GlcNAc(b1-4)[Fuc(a1-6)]GlcNAc
Method in brief: as §1

[22] = target: Fuc(a1-2)Gal(b1-4)GlcNAc(b1-2)[Fuc(a1-2)Gal(b1-4)GlcNAc(b1-4)]Man(a1-3)[Fuc(a1-2)Gal(b1-4)GlcNAc(b1-2)Man(a1-6)]Man(b1-4)GlcNAc(b1-4)GlcNAc
Method in brief: as §1

[23] = target: Fuc(a1-2)Gal(b1-4)GlcNAc(b1-3)Gal(b1-4)GlcNAc
Method in brief: as §1

[24] = target: Fuc(a1-2)Gal(b1-4)GlcNAc(b1-3)Gal(b1-4)GlcNAc(b1-2)Man(a1-3)[Fuc(a1-2)Gal(b1-4)GlcNAc(b1-3)Gal(b1-4)GlcNAc(b1-2)Man(a1-6)]Man(b1-4)GlcNAc(b1-4)GlcNAc
Method in brief: as §1

B1: Si Bti9 1b-V5-his (Solanum lycopersicum) (protein)
chain: MQCNRGCDLALASFYVWRGSNLTLISEMFSTSIADIVSYNNRDNIPNQDSVIAGTRINIPFRCDCLNDGEVLGHAFPYRVKSGDTYDLVARNYSDLTTAQWMMKFNSYPENNIPNTVNLSVVVNCSCGNSDVSKDFGLFVTYPVRAEDNLTSVASAANVSEDIIRRYNPAAVSILDIGQGIIYIPGRDRNGNFPPLPTSTDGLSGGAKKGGRADPAFLYKVVINSKLEGKPIPNPLLGLDSTRTGHHHHHH
With B1 the “glycan array binding signal (z-score)” value (Fuc(a1-2)Gal) was -0.052, the “glycan array binding signal (z-score)” value (Fuc(a1-2)Gal(b1-3)GalNAc) was -0.261 and the “glycan array binding signal (z-score)” value [1] was -0.052. The “glycan array binding signal (z-score)” value [2] was -0.137, the “glycan array binding signal (z-score)” value [3] was 0.024 and the “glycan array binding signal (z-score)” value [4] was -0.123. The “glycan array binding signal (z-score)” value [5] was -0.101, the “glycan array binding signal (z-score)” value (Fuc(a1-2)Gal(b1-3)GlcNAc) was 0.033 and the “glycan array binding signal (z-score)” value [6] was -0.021. For the same binder, the “glycan array binding signal (z-score)” value [7] was 0, the “glycan array binding signal (z-score)” value [8] was -0.178 and the “glycan array binding signal (z-score)” value [9] was -0.034. For the same binder, the “glycan array binding signal (z-score)” value [10] was 0.167, the “glycan array binding signal (z-score)” value [11] was -0.17 and the “glycan array binding signal (z-score)” value [12] was -0.066. For the same binder, the “glycan array binding signal (z-score)” value [13] was -0.157, the “glycan array binding signal (z-score)” value [14] was -0.351 and the “glycan array binding signal (z-score)” value [15] was -0.045. The “glycan array binding signal (z-score)” value [16] was -0.225, the “glycan array binding signal (z-score)” value [17] was -0.231 and the “glycan array binding signal (z-score)” value [18] was -0.239. The “glycan array binding signal (z-score)” value (Fuc(a1-2)Gal(b1-4)Glc) was -0.123, the “glycan array binding signal (z-score)” value (Fuc(a1-2)Gal(b1-4)Glc6S) was -0.231 and the “glycan array binding signal (z-score)” value (Fuc(a1-2)Gal(b1-4)GlcNAc) was -0.23. The “glycan array binding signal (z-score)” value [19] was -0.132, the “glycan array binding signal (z-score)” value [20] was 0.1 and the “glycan array binding signal (z-score)” value [21] was 0.062. For the same binder, the “glycan array binding signal (z-score)” value [22] was -0.096, the “glycan array binding signal (z-score)” value [23] was -0.322 and the “glycan array binding signal (z-score)” value [24] was -0.075.
